Consider 36 sequences from the supplement of paper PMC7726561.

Over roughly 1,100 sequences, “thermal melting temperature (Tm) of peptide-HLA complex” has its median near 58; the lowest 2% begin near 42. The list shows a part of the results.
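Also: cell lysates heated 10 min at 37–73 °C, remaining pHLA pulled down with pan-class I antibody, peptides quantified by DIA-MS versus 37 °C, Tm where half the complex is lost.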

For the experiment, the target named is HLA-A*02:01. Kind of experiment: thermal melting temperature (Tm) of peptide-HLA complex; higher = more thermostable pHLA complex. The conditions noted are these: C1R-A*02:01.
In turn, NLMDIKIGL returned a thermal melting temperature of 56.7 °C.

IMLEALERV: the thermal melting temperature is 59.6 °C.

The sequence FLFNTENKL yielded a thermal melting temperature of 54.7 °C.

Take SILEDPPSI: the thermal melting temperature amounted to 59.4 °C.

GLWGPEEEPHL came in with a thermal melting temperature of 61.8 °C.

VLDTLTKVLV: the thermal melting temperature came to 46.3 °C.

On to ALLDIQSSGRA, for which the thermal melting temperature turned out to be 53 °C.

FIFSDTHEL returned a thermal melting temperature of 54.4 °C.

In turn, VLSSDGVWRV yielded a thermal melting temperature of 56.3 °C.

Consider YLSPDLSKV, for which the thermal melting temperature stood at 61.9 °C.

On to RLQEFIDEV, for which the thermal melting temperature turned out to be 62.7 °C.

Regarding YLDPAQRGV, the thermal melting temperature came out at 62.8 °C.

Consider SLLNQPKAV, for which the thermal melting temperature turned out to be 58.7 °C.

Take KILVSLIEV: the thermal melting temperature is 57.3 °C.

The sequence KLVGEFLEV displayed a thermal melting temperature of 45.7 °C.

VLNNVVIHL yielded a thermal melting temperature of 60.3 °C.

In the case of LLIPGLATA, the thermal melting temperature was determined as 61 °C.

Consider VLIDVGTGYYV, for which the thermal melting temperature was found to be 56 °C.

For SLFPHNPQFI, the thermal melting temperature is 58.8 °C.

As for GLDALKVTV, the thermal melting temperature was 53.9 °C.

In the case of SLDDHVVAV, the thermal melting temperature amounted to 60.2 °C.

For the sequence GLPRFGIEMV, the thermal melting temperature was determined as 60.1 °C.

Sequence TLIDLPGITRV showed a thermal melting temperature of 56.9 °C.

SLLEKQQIYL showed a thermal melting temperature of 60.5 °C.

LLDEEISRV gave a thermal melting temperature of 56.3 °C.

Sequence EVISKLYAV registered a thermal melting temperature of 45.4 °C.

With LLDPSVFHV, the thermal melting temperature worked out at 61.8 °C.

Consider KLLWTTSRV, for which the thermal melting temperature stood at 60.1 °C.

In turn, ILDAGGHNVTI returned a thermal melting temperature of 54.5 °C.

On to QLAEDIEALKV, for which the thermal melting temperature is 58.9 °C.

Turning to QLVDIIEKV, the thermal melting temperature was 58 °C.

RLQEDPPVGV: the thermal melting temperature worked out at 61.3 °C.

TLSEVTNQL: the thermal melting temperature came to 58.1 °C.

YLLTESSKL: the thermal melting temperature is 55.2 °C.

For the sequence SLLDIIEKV, the thermal melting temperature was 63.1 °C.

GLVDEKALAQA: the thermal melting temperature was 58 °C.
